Measured values reported in PubChem BioAssay AID504333 (National Center for Advancing Translational Sciences (NCATS), 2011).
Hit rate of the full screen: of about 360,000 compounds, about 16,000 (4.4%) were called active. The inconclusive results got no clear call from the source; some entries with a clear call stand among them for comparison. The call rests on the fitted dose curve; in most records, active means well fitted inhibition curve with a large enough effect; inconclusive means small, poorly fitted or top-dose-only effect; inactive means no such curve, though single readings can be large or run the other way. Potencies beside an inconclusive call are fits to weak or partial responses and may not hold up.

Molecular target: Bromodomain adjacent to zinc finger domain protein 2B (Homo sapiens) (UniProt Q9UIF8)
Sequence of UniProt Q9UIF8 (Q9UIF8 whole entry, looked up, the tested form may be a part): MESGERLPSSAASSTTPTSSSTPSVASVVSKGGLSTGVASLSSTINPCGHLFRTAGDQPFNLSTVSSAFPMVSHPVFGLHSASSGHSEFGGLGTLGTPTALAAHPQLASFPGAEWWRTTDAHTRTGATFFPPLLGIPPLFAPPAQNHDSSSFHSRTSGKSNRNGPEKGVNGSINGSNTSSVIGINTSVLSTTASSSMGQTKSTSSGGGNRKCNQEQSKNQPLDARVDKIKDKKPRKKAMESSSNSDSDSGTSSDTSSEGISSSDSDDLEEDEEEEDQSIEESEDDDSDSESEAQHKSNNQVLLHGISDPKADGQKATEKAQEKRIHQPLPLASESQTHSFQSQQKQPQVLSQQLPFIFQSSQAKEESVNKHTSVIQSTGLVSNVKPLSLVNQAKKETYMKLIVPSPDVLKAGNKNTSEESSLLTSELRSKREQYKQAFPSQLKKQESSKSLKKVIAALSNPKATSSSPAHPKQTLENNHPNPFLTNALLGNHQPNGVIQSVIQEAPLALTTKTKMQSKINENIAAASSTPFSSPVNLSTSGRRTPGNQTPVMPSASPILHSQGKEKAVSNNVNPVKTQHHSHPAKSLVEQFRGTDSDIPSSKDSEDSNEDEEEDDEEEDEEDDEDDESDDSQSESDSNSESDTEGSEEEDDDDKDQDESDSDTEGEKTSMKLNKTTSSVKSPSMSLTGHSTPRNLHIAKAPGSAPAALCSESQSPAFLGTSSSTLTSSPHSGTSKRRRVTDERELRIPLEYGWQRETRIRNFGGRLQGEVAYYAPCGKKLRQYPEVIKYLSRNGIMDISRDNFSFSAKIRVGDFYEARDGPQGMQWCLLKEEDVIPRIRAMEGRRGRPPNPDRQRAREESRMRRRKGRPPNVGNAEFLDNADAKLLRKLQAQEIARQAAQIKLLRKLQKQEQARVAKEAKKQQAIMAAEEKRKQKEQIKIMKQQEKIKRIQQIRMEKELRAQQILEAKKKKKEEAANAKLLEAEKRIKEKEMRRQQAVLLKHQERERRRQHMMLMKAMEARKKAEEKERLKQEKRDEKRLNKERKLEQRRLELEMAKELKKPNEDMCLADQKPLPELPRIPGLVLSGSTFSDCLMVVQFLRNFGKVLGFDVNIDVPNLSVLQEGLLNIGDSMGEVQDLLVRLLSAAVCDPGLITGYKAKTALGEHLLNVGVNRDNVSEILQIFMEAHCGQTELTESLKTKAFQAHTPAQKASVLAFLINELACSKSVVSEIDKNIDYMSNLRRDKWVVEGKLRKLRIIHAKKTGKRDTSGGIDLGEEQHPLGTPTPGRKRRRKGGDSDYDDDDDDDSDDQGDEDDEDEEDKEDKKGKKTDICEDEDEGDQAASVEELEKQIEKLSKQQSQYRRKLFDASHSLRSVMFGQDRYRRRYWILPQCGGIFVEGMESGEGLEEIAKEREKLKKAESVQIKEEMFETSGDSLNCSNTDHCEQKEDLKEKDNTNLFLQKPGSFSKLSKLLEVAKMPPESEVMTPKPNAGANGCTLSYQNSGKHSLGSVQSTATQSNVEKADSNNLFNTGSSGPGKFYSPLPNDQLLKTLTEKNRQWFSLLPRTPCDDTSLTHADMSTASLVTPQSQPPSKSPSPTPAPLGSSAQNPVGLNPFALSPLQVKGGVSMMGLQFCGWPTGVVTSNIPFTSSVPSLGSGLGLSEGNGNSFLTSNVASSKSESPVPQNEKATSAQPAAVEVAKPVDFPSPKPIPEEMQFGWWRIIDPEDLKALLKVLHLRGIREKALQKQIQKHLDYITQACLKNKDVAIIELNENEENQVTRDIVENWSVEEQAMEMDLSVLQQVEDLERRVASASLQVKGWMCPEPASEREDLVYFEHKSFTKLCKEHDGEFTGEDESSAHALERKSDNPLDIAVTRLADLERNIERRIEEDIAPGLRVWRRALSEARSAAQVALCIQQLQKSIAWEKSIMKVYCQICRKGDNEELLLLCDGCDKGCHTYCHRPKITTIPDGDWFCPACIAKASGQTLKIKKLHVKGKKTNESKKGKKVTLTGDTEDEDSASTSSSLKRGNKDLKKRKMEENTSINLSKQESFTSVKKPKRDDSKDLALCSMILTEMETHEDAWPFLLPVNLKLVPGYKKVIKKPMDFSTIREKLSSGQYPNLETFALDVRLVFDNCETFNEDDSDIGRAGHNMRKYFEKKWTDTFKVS
Assay: qHTS Assay for Inhibitors of BAZ2B; further: nearly all actives have a fitted effect of over 60% in size
Conditions: AlphaScreen BAZ2B-H3K14Ac peptide displacement; series mostly up to 114 µM
Procedure, shortened: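 AlphaScreen luminescence quantifies BAZ2B engagement of H3K14Ac peptide; the protein and biotinylated peptide are both at 50 nM final, buffer PBS pH 7.4 with 0.01% Tween-20, all steps at room temperature.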
Potency means the concentration at half of the fitted maximal effect; tags describe the fitted curve by direction and shape.

Compound	Potency
O=C(CSc1nc(-c2cccc(F)c2)[nH]c1-c1ccccc1)Nc1ccc2c(c1)OCO2	inconclusive: 31.6 µM [inhibitor, partial curve]
CCC1=C/C(=C/c2sc3ccccc3[n+]2CC)CC(C)(C)C1	active: 44.7 µM
SC(COCc1ccccc1)CN1CCN(Cc2ccc3c(c2)OCO3)CC1 (centres undefined)	inconclusive: 44.7 µM [inhibitor, full curve]
CN(Cc1ccccc1F)C(=O)C1CCCN(C(=O)c2ccc(Cl)cc2)C1 (centres undefined)	inactive
N#CCSC1=Nc2ccccc2C2=NC(CCC(=O)N3CCN(c4ccccc4)CC3)C(=O)N12 (centres undefined)	inconclusive: 28.2 µM [inhibitor, single point]
Cc1cc(C)c2c(N)c(C(=O)NCc3ccco3)sc2n1	inactive
CC(C)(C)c1ccc(CNc2ccc([N+](=O)[O-])cn2)cc1	inconclusive: 31.6 µM [inhibitor, partial curve]
CCc1ccc(N(C(=O)c2csnn2)C(C(=O)NC(C)(C)C)c2ccncc2)cc1 (centres undefined)	inactive
CCc1n[nH]c(=S)n1/N=C/C(C)=C\c1ccccc1	active: 56.2 µM
CC(NC(=O)CSc1nc(C2CC2)n(-c2ccccc2)n1)c1ccco1 (centres undefined)	inactive
COc1ccc2c(=O)c3c(=O)n(Cc4ccco4)c(-c4ccco4)nc3oc2c1	inconclusive: 89.1 µM [inhibitor, single point]
CCOc1ccc(CN2CCNC(=O)C2CC(=O)O)cc1 (centres undefined)	inactive
COc1ccc(N/C=C(\C#N)c2ccc(OCCCF)cc2)cc1	inconclusive: 50.1 µM [inhibitor, partial curve]
N#Cc1nc(COc2ccc(Cl)cc2)oc1N1CCCC1	active: 39.8 µM
CN(CC(=O)Nc1n[nH]c(=S)s1)S(=O)(=O)c1cccc2cccnc12	inconclusive: 79.4 µM [inhibitor, single point]
Cc1cc(NCCCn2ccnc2)n2ncc(-c3ccccc3)c2n1	inconclusive: 44.7 µM [inhibitor, partial curve]
Cc1c(OCC(N)=O)ccc2c(-c3ccccc3)cc(=O)oc12	inconclusive: 70.8 µM [inhibitor, single point]
C(=N\Nc1nc(Nc2ccccc2)nc(N2CCCCC2)n1)/c1ccco1	inconclusive: 31.6 µM [inhibitor, partial curve]
CN(C)S(=O)(=O)c1cccc(C(=O)NCC(=O)NC2CCN(Cc3ccccc3)CC2)c1	inactive
CCCCOc1ccc(C(C)NC(=O)CN2C(=O)CSc3ccc(S(=O)(=O)N4CCOCC4)cc32)cc1 (centres undefined)	inactive
CC(C)(C)c1ccc(O)c(N=Cc2cc3c(cc2[N+](=O)[O-])OCO3)c1	active: 50.1 µM
Cc1ccc(-n2cccc2/C=C2/NC(=O)N(CC(=O)Nc3cccc(C)c3)C2=O)cc1	inconclusive: 89.1 µM [inhibitor, single point]
CCOC(=O)c1c(C)[nH]c(C)c1S(=O)(=O)NCCc1ccc(SC)cc1	inconclusive: 70.8 µM [inhibitor, single point]
COc1ccc(OC)c(NC(=O)C2CCCN(S(=O)(=O)c3ccc4c(c3)CCCC(=O)N4)C2)c1 (centres undefined)	inactive
COc1ccc(CCN(C)C(=O)C2CC(=O)N(Cc3ccc(C)cc3)C2)cc1OC (centres undefined)	inactive

Compound	Potency
Cc1c(C(=O)Nc2ccccc2[N+](=O)[O-])csc1-c1ccccc1	active: 11.2 µM
CCN1CCN(Cc2ccc(NC(=O)c3ccc(C)c(/C=C/c4cnc(Nc5cc(N6CCNCC6)nc(C)n5)cn4)c3)cc2C(F)(F)F)CC1	inconclusive: 39.8 µM [inhibitor, partial curve]
c1ccc(NNC2=NCCS2)cc1	inactive
CCCCCCN1Cc2ccccc2C1	inconclusive: 89.1 µM [inhibitor, single point]
CCOC(=O)c1cc(S(=O)(=O)NCc2ccc(Cl)cc2)[nH]n1	inconclusive: 89.1 µM [inhibitor, single point]
COc1ccccc1C(=O)Nc1nc2n(n1)C(c1ccc(F)cc1)C=C(c1ccc(Cl)cc1)N2 (centres undefined)	inactive
COc1ccccc1C(=O)N/C(=C\c1cn(S(=O)(=O)N(C)C)c2ccccc12)C(=O)NCCCn1ccnc1	inconclusive: 39.8 µM [inhibitor, partial curve]
CCc1ccc(CNC(=O)C2CCCN(c3nnc(C)c4c(C)n(-c5ccccc5)nc34)C2)cc1 (centres undefined)	active: 79.4 µM
Oc1[nH]c2ccccc2c1C1=NCCCC1	active: 50.1 µM
O=c1c2cc3c(cc2nc2sc(Nc4cccc([N+](=O)[O-])c4)nn12)OCO3	inconclusive: 35.5 µM [inhibitor, full curve]
C/C(=N\Nc1nc(C)cc(-c2ccccc2)n1)c1cccc(N)c1	inconclusive: 89.1 µM [inhibitor, single point]
Cc1ccc(C(=O)N/N=C/c2nc3ccccc3n2C)cc1	inconclusive: 50.1 µM [inhibitor, partial curve]
COc1ccc(N2CCN(C(CNS(C)(=O)=O)c3ccco3)CC2)cc1 (centres undefined)	inconclusive: 89.1 µM [inhibitor, single point]
O=C(/C=C/c1ccco1)N(Cc1cccc(Br)c1)C1CCS(=O)(=O)C1 (centres undefined)	inconclusive: 79.4 µM [inhibitor, single point]
O=C(Nc1cccc(Br)c1)c1ccc2c(c1)SC1=NS(=O)(=O)CCN12	inactive
C1=C(c2ccco2)N2CCN=C2S1	inactive
COc1cc(/C=C2/C(=O)NN(c3ccc(Cl)cc3)C2=O)cc(Br)c1O	active: 44.7 µM
NC(=O)CSc1nnc(Cc2ccc3c(c2)OCO3)o1	inactive
COCCCNC(=O)C1CCN(Cc2cc3ccccc3n2Cc2cccc(C)c2)CC1	inconclusive: 79.4 µM [inhibitor, single point]
Cc1ccc(-n2c(SCC(=O)O)nc3sc4c(c3c2=O)C(C)CCC4)cc1 (centres undefined)	inactive
Cc1cc(C)cc(NC(=O)Nc2ccc(N3CCCCC3)cc2)c1	inactive
Cc1[nH]c2ccc(C(=O)O)cc2c1C	inconclusive: 89.1 µM [inhibitor, single point]
O=C(N/N=C/c1cn[nH]c1-c1ccc(Cl)cc1)c1ccc([N+](=O)[O-])cc1	inconclusive: 44.7 µM [inhibitor, partial curve]
c1ccc(CN2CCC(N=C3NN=C(c4ccc5c(c4)OCCO5)CS3)CC2)cc1	active: 39.8 µM
Cc1ccc(S(=O)(=O)NC(=O)NCC2CCN(S(=O)(=O)c3ccccc3)CC2)cc1	inactive

Compound	Potency
Brc1ccc(CSc2nccn2-c2ccccc2)cc1	active: 39.8 µM
COc1ccccc1CNC(=O)CSc1ncc(S(=O)(=O)c2ccc(C)c(Cl)c2)c(=O)[nH]1	inactive
O=C(NC1CCCCC1)C(c1ccccn1)N(C(=O)c1csnn1)c1ccccc1 (centres undefined)	inactive
S=C(NCC1CCCO1)c1ccc(Br)cc1 (centres undefined)	inactive
Oc1cc(NCc2ccc(F)cc2)cc2cccnc12	inconclusive: 89.1 µM [inhibitor, single point]
CCOC(=O)C1(Cc2ccccc2)CCN(CC2CC=CCC2)CC1 (centres undefined)	inconclusive: 79.4 µM [inhibitor, single point]
COc1cc(-c2nc(SCC(=O)Nc3ccc4c(c3)OCO4)c(-c3ccccc3)[nH]2)cc(OC)c1OC	inconclusive: 25.1 µM [inhibitor, full curve]
O=C1/C(=C/c2cccc(Br)c2)SC(=S)N1CCC(=O)N(CCO)c1ccccc1	inconclusive: 44.7 µM [inhibitor, partial curve]
CC1(CCl)N([O-])C2=C(CCCC2)[N+]1=O (centres undefined)	active: 44.7 µM
CCCC(=O)Nc1ccccc1NC(=O)c1ccc(OCC)cc1	inactive
Cc1cc([N+](=O)[O-])cnc1Sc1nccn1C	active: 50.1 µM
COC(=O)C1=C(N)N(c2ccc(F)cc2)C2=C(C(=O)CCC2)C1c1ccc2c(c1)OCO2 (centres undefined)	inactive
O=C1CC(=C(c2ccccc2)c2ccccc2)C(=O)N1CCN1CCN(c2cccc(Cl)c2)CC1	inconclusive: 28.2 µM [inhibitor, partial curve]
Cc1ccc2[nH]c(=O)c(C3C(C#N)=C(N)Oc4c3ccc3cccnc43)cc2c1 (centres undefined)	inconclusive: 89.1 µM [inhibitor, single point]
Oc1ccc(/C=N/Nc2nc(-c3ccc(Cl)cc3)cc(C(F)(F)F)n2)cc1	inconclusive: 39.8 µM [inhibitor, partial curve]
COc1ccc([C@H]2CC(=O)C=C(c3ccc4c(c3)OCCO4)C2)cc1	inconclusive: 39.8 µM [inhibitor, single point]
Cc1cccc(N2CCN(C(=O)c3ccc4c(c3)N(Cc3ccccc3)C(=O)c3ccccc3S4(=O)=O)CC2C)c1 (centres undefined)	inconclusive: 20 µM [inhibitor, full curve]
CCOC(=O)C(=CNc1nc(-c2ccc3ccccc3c2)cs1)C(=O)OCC	inactive
CC(=O)Nc1ccc(NC(=O)CSc2ncnc3sc(C)c(C)c23)cc1	inactive
Cc1ccc(CNC(=O)CCn2cc(-c3ccc(C)cc3)nc2-c2ccncc2)cc1	inconclusive: 79.4 µM [inhibitor, single point]
CC(=O)c1c(Cl)nc2cccc3c2c1-c1ccccc1C3=O	inactive
COc1ccc(/C=N/NC(=O)c2ccco2)cc1COc1ccc(F)cc1	inconclusive: 89.1 µM [inhibitor, single point]
CCn1c(=O)c2sccc2n2c(CCCC(=O)N3CCN(c4ccc(F)cc4)CC3)nnc12	inactive
COc1ccc(NS(=O)(=O)c2ccc(N3CCCC3)c(NC(=S)Nc3cccc(S(=O)(=O)N(C)C)c3)c2)cc1	inconclusive: 44.7 µM [inhibitor, partial curve]
